Experimental data: the supplement of paper PMC9135407
Values joined by “and” are separate entries in the source; they are usually repeats but may differ in a detail not shown here. Equal entries are not always repeated. Structures can show the parent of a compound that is named as a salt. Among all 5,800 compounds or so, about 620 (11%) showed activity.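 The calls were made as follows: active = score above a cut-off or among the top three wells of a plate; in these data no inactive exceeds 0.85.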 This is a selection; strong and weak results do not stand in their true shares.

Tested on: primary human hepatic stellate cells (donor 1)
Assay: scaled lipid accumulation score (0 = DMSO-like, 1 = nortriptyline-like); higher = stronger HSC inactivation (lipid re-accumulation), active = hit call of the paper
Details: 48 h
Experimental: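 Primary lipid accumulation screen in primary human hepatic stellate cell myofibroblasts (donor 1, passage 8) in 384-well plates. 100 nL of library compound was pin-transferred into 30 µL medium in duplicate, and cells were treated for 48 h. The 'Scaled' score combines distance from plate baseline, toxicity and reproducibility penalties, and is normalised to nortriptyline (positive) and DMSO (negative) controls on each plate. A hit is defined as scaled >0.85 or among the top 3 wells per plate.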

[1] = library stock concentration: 10 mM
[2] = library stock concentration: 3.33 mM
[3] = library stock concentration: 1 mM
[4] = library stock concentration: 80 uM
[5] = library stock concentration: 400 uM
[6] = library stock concentration: 2 mM

SMILES: COc1cc(/C=C/C(=O)N2CCCCCCC2)cc(OC)c1OC
- scaled lipid accumulation score [1]: inactive: ≤ 0

SMILES: CC(C)C(=O)Oc1ccc(CO)cc1[C@H](CCN(C(C)C)C(C)C)c1ccccc1.O=C(O)C=CC(=O)O [Fesoterodine Fumarate]
- scaled lipid accumulation score [1]: active: 1.13

SMILES: O=C(O)C1=CCCN(CCON=C(c2ccccc2)c2ccccc2)C1 [NO-711 hydrochloride]
- scaled lipid accumulation score [1]: inactive: ≤ -0.055

SMILES: O=C(O)C1=CCCN(CCON=C(c2ccccc2)c2ccccc2)C1
- scaled lipid accumulation score [1]: inactive: 0.046

SMILES: Clc1ccc(N2CCN(Cc3cc4ccccn4n3)CC2)cc1
- scaled lipid accumulation score [1]: inactive: ≤ 0

SMILES: CC(C(=O)O)c1ccc(C(=O)c2ccccc2)s1 (configuration not stated) [Tiaprofenic acid]
- scaled lipid accumulation score: inactive: ≤ 0

SMILES: CC[C@H](CO)Nc1nc(NCc2ccc(-c3ccccn3)cc2)c2ncn(C(C)C)c2n1 [CR8, (R)-Isomer]
- scaled lipid accumulation score [2]: inactive: ≤ 0

SMILES: O=C(O)CCC/C=C\CC1C(O)CC(O)C1/C=C/C(O)COc1cccc(Cl)c1 (configuration not stated)
- scaled lipid accumulation score [1]: inactive: ≤ -0.001

SMILES: O=C(O)CCC/C=C\CC1C(O)CC(O)C1/C=C/C(O)COc1cccc(Cl)c1 (configuration not stated) [Cloprostenol]
- scaled lipid accumulation score [3]: inactive: ≤ -0.021

SMILES: CCCCC[C@H](O)/C=C/C=C\CCCCCCCC(=O)O
- scaled lipid accumulation score (library stock concentration: 100 uM): inactive: ≤ -0.021

SMILES: NC(=O)NS(=O)(=O)c1ccc(N)cc1
- scaled lipid accumulation score [1]: inactive: ≤ 0

SMILES: CC(=O)N(CC(O)CN(C(C)=O)c1c(I)c(C(=O)NCC(O)CO)c(I)c(C(=O)NCC(O)CO)c1I)c1c(I)c(C(=O)NCC(O)CO)c(I)c(C(=O)NCC(O)CO)c1I (configuration not stated) [Iodixanol]
- scaled lipid accumulation score: inactive: ≤ 0

SMILES: O=C(Nc1ccc(I)cc1)NC1CCCCC1
- scaled lipid accumulation score [1]: active: 0.938

SMILES: CCCCCCCCCCCC[N+](C)(C)CCOc1ccccc1 [Domiphen Bromide]
- scaled lipid accumulation score [2]: inactive: 0.455
- scaled lipid accumulation score [1]: inactive: 0.052

SMILES: C=CCSCC1Nc2cc(Cl)c(S(N)(=O)=O)cc2S(=O)(=O)N1 (configuration not stated) [Althiazide]
- scaled lipid accumulation score: inactive: ≤ 0
- scaled lipid accumulation score (library stock concentration: 5.2 mM): inactive: ≤ 0
- scaled lipid accumulation score [1]: inactive: ≤ 0

SMILES: NC(=O)c1cccc(N)c1 [3-aminobenzamide]
- scaled lipid accumulation score [1]: inactive: ≤ 0

SMILES: NC(=O)c1cccc(N)c1 [3-Aminobenzamide]
- scaled lipid accumulation score [2]: inactive: ≤ 0
- scaled lipid accumulation score [1]: inactive: ≤ 0

SMILES: NC(=O)c1cccc(N)c1 [3-aminobenzamide (3-ABA)]
- scaled lipid accumulation score (library stock concentration: 36.7 mM): inactive: ≤ -0.021

SMILES: Cc1ccc(-n2nc(C(C)(C)C)cc2NC(=O)Nc2ccc(OCCN3CCOCC3)c3ccccc23)cc1 [BIRB 796 (Doramapimod)]
- scaled lipid accumulation score [2]: inactive: 0.017
- scaled lipid accumulation score [1]: inactive: ≤ 0

SMILES: Cc1ccc(-n2nc(C(C)(C)C)cc2NC(=O)Nc2ccc(OCCN3CCOCC3)c3ccccc23)cc1
- scaled lipid accumulation score [4]: inactive: ≤ -0.009
- scaled lipid accumulation score [5]: inactive: ≤ -0.009
- scaled lipid accumulation score [6]: inactive: 0.044
- scaled lipid accumulation score [1]: inactive: ≤ -0.009

SMILES: CNC(=O)c1ccc(C)c(-n2c(C)cc(OCc3ccc(F)cc3F)c(Br)c2=O)c1
- scaled lipid accumulation score [4]: inactive: 0.057
- scaled lipid accumulation score [5]: inactive: 0.038
- scaled lipid accumulation score [6]: inactive: 0.056
- scaled lipid accumulation score [2]: inactive: 0.014
- scaled lipid accumulation score [1]: inactive: ≤ 0 and inactive: ≤ -0.001

SMILES: CCCN(CCc1ccccc1)C1CCc2c(O)cccc2C1 (configuration not stated) [(?)-PPHT hydrochloride]
- scaled lipid accumulation score [1]: inactive: 0.386

SMILES: N#C/C(=C(/N)Sc1ccccc1N)c1cccc(C(O)c2ccncc2)c1 (configuration not stated) [MEK Inhibitor I]
- scaled lipid accumulation score [2]: inactive: ≤ 0

SMILES: CNC(=N)NCCC[C@H](N)C(=O)O
- scaled lipid accumulation score [1]: inactive: 0.076

SMILES: CNC(=N)NCCC[C@H](N)C(=O)O [NG-Monomethyl-L-arginine acetate]
- scaled lipid accumulation score [1]: inactive: ≤ -0.002

SMILES: Cc1cc(-c2ccc(/N=N/c3ccc4c(S(=O)(=O)O)cc(S(=O)(=O)O)c(N)c4c3O)c(C)c2)ccc1/N=N/c1ccc2c(S(=O)(=O)O)cc(S(=O)(=O)O)c(N)c2c1O
- scaled lipid accumulation score [1]: inactive: 0.033

SMILES: CCCCC[C@H](O)/C=C/[C@H]1[C@@H]2CO[C@@H](C2)[C@@H]1C/C=C\CCCC(=O)O
- scaled lipid accumulation score [3]: inactive: ≤ 0

SMILES: Cl.Cl.OCCN1CCN(CCCN2c3ccccc3C=Cc3ccccc32)CC1 [Opipramol dihydrochloride]
- scaled lipid accumulation score [1]: active: 0.885

SMILES: C[C@]12CC[C@H](O)CC1=CCC1C2CC[C@]2(C)C(n3cnc4ccccc43)=CCC12 (some centres not stated) [Galeterone]
- scaled lipid accumulation score [1]: active: 1.27

SMILES: Nc1nc(Nc2ccc(S(N)(=O)=O)cc2)nn1C(=S)Nc1c(F)cccc1F [Cdk1/2 Inhibitor III]
- scaled lipid accumulation score [2]: inactive: 0.782

SMILES: CC1=C(/C=C/C(C)=C\C=C\C(C)=C\C(=O)O)C(C)(C)CCC1 [9-cis Retinoic acid]
- scaled lipid accumulation score [3]: inactive: ≤ -0.021

SMILES: CC[C@H](CO)Nc1nc(NCc2ccccc2O)c2ncn(C(C)C)c2n1 [Olomoucine II]
- scaled lipid accumulation score [2]: inactive: 0.299

SMILES: O=C(O)CCC/C=C\C[C@@H]1[C@@H](/C=C/C(F)(F)COc2ccccc2)[C@H](O)C[C@@H]1O [Tafluprost (free acid)]
- scaled lipid accumulation score [3]: inactive: 0.007

SMILES: C[C@]1(Cn2ccnn2)[C@H](C(=O)O)N2C(=O)C[C@H]2S1(=O)=O
- scaled lipid accumulation score [1]: inactive: 0.126

SMILES: CCN(CC)Cc1ccc2cc(COC(=O)Nc3ccc(C(=O)NO)cc3)ccc2c1.Cl.O [Givinostat (ITF2357)]
- scaled lipid accumulation score [2]: active: 0.903
- scaled lipid accumulation score [1]: active: 0.897

SMILES: CN(C)CCC(c1ccc(Br)cc1)c1ccccn1 (single isomer, unassigned; (+)) [(+)-Brompheniramine maleate]
- scaled lipid accumulation score [1]: inactive: 0.351

SMILES: C=CS(=O)(=O)NC1CCN(C(=O)CNc2cc(I)c(Cl)cc2OC)CC1 [K-Ras(G12C) inhibitor 9]
- scaled lipid accumulation score [2]: inactive: 0.381
- scaled lipid accumulation score [1]: inactive: 0.776

SMILES: CC[C@@H](CO)NCCN[C@@H](CC)CO [Ethambutol HCl]
- scaled lipid accumulation score [2]: inactive: ≤ 0
- scaled lipid accumulation score [1]: inactive: ≤ -0.001

SMILES: CC[C@@H](CO)NCCN[C@@H](CC)CO [Ethambutol dihydrochloride]
- scaled lipid accumulation score: inactive: 0.03

SMILES: CC[C@@H](CO)NCCN[C@@H](CC)CO [Ethambutol hydrochloride]
- scaled lipid accumulation score (library stock concentration: 7.2 mM): inactive: 0.022
- scaled lipid accumulation score [1]: inactive: ≤ 0

SMILES: CC[C@@H](CO)NCCN[C@@H](CC)CO [Ethambutol]
- scaled lipid accumulation score [1]: inactive: ≤ 0

SMILES: CC1=C(/C=C/C(=C/C=C/C(C)=C/C(=O)O)c2ccc(C)cc2)C(C)(C)CCC1
- scaled lipid accumulation score [1]: inactive: ≤ -0.001

SMILES: O=C(NCCN1CCCCC1)c1ccc(I)cc1 [N-[2-(Piperidinylamino)ethyl]-4-iodobenzamide]
- scaled lipid accumulation score [1]: inactive: 0.428

SMILES: CC(=O)OCC(=O)[C@@]1(OC(C)=O)[C@@H](C)C[C@H]2[C@@H]3C[C@H](F)C4=CC(=O)C=C[C@]4(C)[C@@]3(F)[C@@H](O)C[C@@]21C [Diflorasone diacetate]
- scaled lipid accumulation score (library stock concentration: 4 mM): inactive: ≤ 0

SMILES: CC(=O)OCC(=O)[C@@]1(OC(C)=O)[C@@H](C)C[C@H]2[C@@H]3C[C@H](F)C4=CC(=O)C=C[C@]4(C)[C@@]3(F)[C@@H](O)C[C@@]21C [Diflorasone Diacetate]
- scaled lipid accumulation score: inactive: ≤ 0

SMILES: COc1cc2ncn(-c3cc(OCc4ccccc4C(F)(F)F)c(C(N)=O)s3)c2cc1OC
- scaled lipid accumulation score [1]: active: 0.992

SMILES: C=CCNC1=C2C[C@@H](C)C[C@H](OC)[C@H](O)[C@@H](C)C=C(C)[C@H](OC(N)=O)[C@@H](OC)C=CC=C(C)C(=O)NC(=CC1=O)C2=O [17-AAG (Tanespimycin)]
- scaled lipid accumulation score [1]: active: 0.873

SMILES: CNCCC[C@]12CC[C@H](c3ccccc31)c1ccccc12.Cl [Maprotiline hydrochloride]
- scaled lipid accumulation score: active: 0.944

SMILES: CC(N)(Cc1ccc(O)c(O)c1)C(=O)O (racemic) [(?)-3-(3,4-dihydroxyphenyl)-2-methyl-DL-alanine]
- scaled lipid accumulation score [1]: inactive: 0.067

SMILES: Cc1cc(C)c(S(=O)(=O)Nc2cccc(C(F)(F)F)c2)c(C)c1
- scaled lipid accumulation score [1]: inactive: ≤ -0.006

SMILES: CCCOc1ccc(C(=O)OCCN(CC)CC)cc1N [Proxymetacaine]
- scaled lipid accumulation score [1]: inactive: 0.166

SMILES: CCCOc1ccc(C(=O)OCCN(CC)CC)cc1N [Proparacaine hydrochloride]
- scaled lipid accumulation score: inactive: ≤ 0
- scaled lipid accumulation score (library stock concentration: 6 mM): inactive: ≤ 0

SMILES: CCCOc1ccc(C(=O)OCCN(CC)CC)cc1N [Proparacaine HCl]
- scaled lipid accumulation score [2]: inactive: ≤ 0
- scaled lipid accumulation score [1]: inactive: ≤ 0

SMILES: COC(=O)Nc1ccc2[nH]cc(CCNC(C)=O)c2c1
- scaled lipid accumulation score [1]: inactive: 0.024

SMILES: C#CCn1c(=O)c2c(ncn2C)n(C)c1=O [3,7-Dimethyl-1-propargylxanthine]
- scaled lipid accumulation score [1]: inactive: ≤ -0.07

SMILES: Cn1cc(-c2ccc3c(c2)CCN3C(=O)Cc2cccc(C(F)(F)F)c2)c2c(N)ncnc21
- scaled lipid accumulation score [2]: inactive: ≤ -0.009
- scaled lipid accumulation score [1]: inactive: 0.687

SMILES: Oc1cccc(-c2nc(N3CCOCC3)c3oc4ncccc4c3n2)c1
- scaled lipid accumulation score [4]: inactive: 0.118
- scaled lipid accumulation score [5]: inactive: 0.051 and inactive: ≤ -0.005
- scaled lipid accumulation score [3]: inactive: ≤ 0
- scaled lipid accumulation score [6]: inactive: ≤ -0.009 and inactive: ≤ -0.005
- scaled lipid accumulation score [2]: inactive: 0.203 and inactive: 0.016
- scaled lipid accumulation score [1]: inactive: 0.796 and inactive: 0.279

SMILES: CCN(CC)CCCC(C)Nc1c2ccc(Cl)cc2nc2ccc(OC)cc12 (configuration not stated) [Quinacrine 2HCl dihydrate]
- scaled lipid accumulation score (library stock concentration: 5 mM): active: 0.876

SMILES: CC(=O)OCC(=O)[C@H]1CC[C@H]2[C@@H]3CCC4=CC(=O)CC[C@]4(C)[C@H]3CC[C@]12C [Desoxycorticosterone acetate]
- scaled lipid accumulation score (library stock concentration: 5.4 mM): inactive: ≤ -0.001
- scaled lipid accumulation score [1]: inactive: 0.053

SMILES: Cc1cc(SCc2sc(-c3ccc(C(F)(F)F)cc3)nc2C)ccc1OCC(=O)O
- scaled lipid accumulation score [4]: inactive: 0.028
- scaled lipid accumulation score [5]: inactive: ≤ -0.001
- scaled lipid accumulation score [6]: inactive: ≤ -0.001
- scaled lipid accumulation score [1]: inactive: 0.119

SMILES: N=C(N)NCCN1CCCCCCC1 [Guanethidine sulfate]
- scaled lipid accumulation score: inactive: ≤ 0
- scaled lipid accumulation score (library stock concentration: 6.7 mM): inactive: 0.022
- scaled lipid accumulation score [1]: inactive: ≤ 0

SMILES: CC(C)CCCC(C)NC(C)C (configuration not stated)
- scaled lipid accumulation score [1]: inactive: ≤ 0
